Test results as given in the supplement of paper PMC8728848.
This is one part of the list.

Experiments:
Experiment in all cases: glycan array binding signal (z-score within array); higher = stronger binding
Settings in all cases: glycan notation: IUPAC condensed, linker removed
[1] = target: Man(a1-2)Man(a1-3)[Man(a1-2)Man(a1-6)]Man(a1-6)[Man(a1-2)Man(a1-2)Man(a1-3)]Man(b1-4)GlcNAc(b1-4)GlcNAc
Outline: (§1)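 Glycan array data were curated from 3228 arrays in the Consortium for Functional Glycomics database and kept only where the protein sequence was available. Glycan names were converted to IUPAC-condensed notation, and columns mapping to the same glycan were averaged. The binding signal is a within-array Z-score, averaged across arrays of the same protein sequence at different concentrations or buffers and across linkers. Negative Z-scores can be read as non-binding.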

[2] = target: Man(a1-2)Man(a1-3)[Man(a1-6)]Man(a1-6)[Man(a1-2)Man(a1-3)]Man(b1-4)GlcNAc(b1-4)GlcNAc
Outline: as §1

[3] = target: Man(a1-2)Man(a1-6)[Man(a1-3)]Man(a1-6)[Man(a1-2)Man(a1-2)Man(a1-3)]Man
Outline: as §1

[4] = target: Man(a1-2)Man(a1-6)[Man(a1-3)]Man(a1-6)[Man(a1-2)Man(a1-2)Man(a1-3)]Man(b1-4)GlcNAc(b1-4)GlcNAc
Outline: as §1

Man(a1-3)[Man(a1-6)]Man = target: Man(a1-3)[Man(a1-6)]Man
Outline: as §1

[5] = target: Man(a1-3)[Man(a1-6)]Man(a1-6)[Man(a1-2)Man(a1-3)]Man(b1-4)GlcNAc(b1-4)GlcNAc
Outline: as §1

[6] = target: Man(a1-3)[Man(a1-6)]Man(a1-6)[Man(a1-3)]Man
Outline: as §1

[7] = target: Man(a1-3)[Man(a1-6)]Man(a1-6)[Man(a1-3)]Man(b1-4)GlcNAc(b1-4)GlcNAc
Outline: as §1

[8] = target: Man(a1-3)[Man(a1-6)]Man(b1-4)GlcNAc(b1-4)GlcNAc
Outline: as §1

[9] = target: Man(a1-3)[Man(a1-6)]Man(b1-4)GlcNAc(b1-4)[Fuc(a1-6)]GlcNAc
Outline: as §1

Man(a1-6)Man = target: Man(a1-6)Man
Outline: as §1

Man(b1-4)GlcNAc = target: Man(b1-4)GlcNAc
Outline: as §1

MurNAc(b1-4)GlcNAc = target: MurNAc(b1-4)GlcNAc
Outline: as §1

Neu5Ac(a2-3)Gal = target: Neu5Ac(a2-3)Gal
Outline: as §1

[10] = target: Neu5Ac(a2-3)Gal(b1-3)GalNAc
Outline: as §1

[11] = target: Neu5Ac(a2-3)Gal(b1-3)GalNAc(b1-3)Gal(a1-4)Gal(b1-4)Glc
Outline: as §1

[12] = target: Neu5Ac(a2-3)Gal(b1-3)GalNAc(b1-4)[Neu5Ac(a2-3)]Gal(b1-4)Glc
Outline: as §1

[13] = target: Neu5Ac(a2-3)Gal(b1-3)GalNAc(b1-4)[Neu5Ac(a2-8)Neu5Ac(a2-3)]Gal(b1-4)Glc
Outline: as §1

[14] = target: Neu5Ac(a2-3)Gal(b1-3)GalNAc6S
Outline: as §1

[15] = target: Neu5Ac(a2-3)Gal(b1-3)GlcNAc
Outline: as §1

[16] = target: Neu5Ac(a2-3)Gal(b1-3)GlcNAc(b1-2)Man
Outline: as §1

[17] = target: Neu5Ac(a2-3)Gal(b1-3)GlcNAc(b1-2)Man(a1-3)[GlcNAc(b1-4)][Neu5Ac(a2-3)Gal(b1-3)GlcNAc(b1-2)Man(a1-6)]Man(b1-4)GlcNAc(b1-4)GlcNAc
Outline: as §1

[18] = target: Neu5Ac(a2-3)Gal(b1-3)GlcNAc(b1-2)Man(a1-3)[Neu5Ac(a2-3)Gal(b1-3)GlcNAc(b1-2)Man(a1-6)]Man(b1-4)GlcNAc(b1-4)GlcNAc
Outline: as §1

[19] = target: Neu5Ac(a2-3)Gal(b1-3)GlcNAc(b1-3)Gal(b1-3)GlcNAc
Outline: as §1

[20] = target: Neu5Ac(a2-3)Gal(b1-3)GlcNAc(b1-3)Gal(b1-4)GlcNAc
Outline: as §1

[21] = target: Neu5Ac(a2-3)Gal(b1-3)GlcNAc(b1-3)GalNAc
Outline: as §1

[22] = target: Neu5Ac(a2-3)Gal(b1-3)GlcNAc(b1-4)Gal(b1-4)Glc
Outline: as §1

[23] = target: Neu5Ac(a2-3)Gal(b1-3)GlcNAc(b1-6)GalNAc
Outline: as §1

[24] = target: Neu5Ac(a2-3)Gal(b1-3)GlcNAc6S
Outline: as §1

[25] = target: Neu5Ac(a2-3)Gal(b1-3)[Fuc(a1-4)]GlcNAc
Outline: as §1

[26] = target: Neu5Ac(a2-3)Gal(b1-3)[Fuc(a1-4)]GlcNAc(b1-3)Gal(b1-3)[Fuc(a1-4)]GlcNAc
Outline: as §1

[27] = target: Neu5Ac(a2-3)Gal(b1-3)[Fuc(a1-4)]GlcNAc(b1-3)Gal(b1-4)[Fuc(a1-3)]GlcNAc
Outline: as §1

[28] = target: Neu5Ac(a2-3)Gal(b1-3)[GlcNAc(b1-6)]GalNAc
Outline: as §1

[29] = target: Neu5Ac(a2-3)Gal(b1-3)[Neu5Ac(a2-6)]GalNAc
Outline: as §1

[30] = target: Neu5Ac(a2-3)Gal(b1-3)[Neu5Ac(a2-6)]GlcNAc(b1-3)[Fuc(a1-3)[Gal(b1-4)]GlcNAc(b1-6)]Gal(b1-4)Glc
Outline: as §1

[31] = target: Neu5Ac(a2-3)Gal(b1-3)]Neu5Ac(a2-3)Gal(b1-4)]GlcNAc
Outline: as §1

Neu5Ac(a2-3)Gal(b1-4)Glc = target: Neu5Ac(a2-3)Gal(b1-4)Glc
Outline: as §1

B1: FliD (Clostridium difficile) (protein)
chain: MSSISPVRVTGLSGNFDMEGIIEASMIRDKEKVNKAKQDQQIVKWKQEIYRDIIKESKNLYDKYLNGDSPNSITNKKAYSATRITSSDESIIVAKGSAGAEKINYQFAVSQMAEPAKVTIKLNSSDPIVQQFPPNASGASSLNIGGVNIPISEQDTTSTIVSKINSLCADNDIRASYSEMTGELIISRKQTGSSSDIDLKVIGNDSLAGQIASDNGITFTTDASGTKSAVVYGKNLEADVTDDQGRVTHISKEQNSFKIDNIDYNVNSKGSAKLVSVTDTEEATKNMKAFVDDYNALMDKVYGLVTTKKSKDYPPLTDEQKDDMTTEEIEKWEKKAKEGILRNDDELRAFVEDIQSMFFGDADTIIALRKLGISEHENYNKKGQISFNADTFSKALIDDSDKVYKALAGYSSNYDDKGMFEKLKKIVFEYSGSSASKLTKKAGMENSSSASQNVYSKQIAEQERNISRLVEKMNDKEKRLYAKYSALESLLNKYSSQMNYFSQAQGN
glycan array binding signal (z-score) [1]: -0.104 | glycan array binding signal (z-score) [2]: -0.233 | glycan array binding signal (z-score) [3]: -0.192 | glycan array binding signal (z-score) [4]: -0.154 | glycan array binding signal (z-score) (Man(a1-3)[Man(a1-6)]Man): -0.205 | glycan array binding signal (z-score) [5]: 0.082 | glycan array binding signal (z-score) [6]: -0.075 | glycan array binding signal (z-score) [7]: -0.223 | glycan array binding signal (z-score) [8]: -0.208 | glycan array binding signal (z-score) [9]: -0.274 | glycan array binding signal (z-score) (Man(a1-6)Man): 0.627 | glycan array binding signal (z-score) (Man(b1-4)GlcNAc): -0.16 | glycan array binding signal (z-score) (MurNAc(b1-4)GlcNAc): -0.199 | glycan array binding signal (z-score) (Neu5Ac(a2-3)Gal): -0.168 | glycan array binding signal (z-score) [10]: -0.182 | glycan array binding signal (z-score) [11]: -0.195 | glycan array binding signal (z-score) [12]: -0.056 | glycan array binding signal (z-score) [13]: -0.219 | glycan array binding signal (z-score) [14]: 0.007 | glycan array binding signal (z-score) [15]: -0.234 | glycan array binding signal (z-score) [16]: -0.097 | glycan array binding signal (z-score) [17]: -0.213 | glycan array binding signal (z-score) [18]: -0.177 | glycan array binding signal (z-score) [19]: -0.261 | glycan array binding signal (z-score) [20]: -0.272 | glycan array binding signal (z-score) [21]: -0.254 | glycan array binding signal (z-score) [22]: -0.207 | glycan array binding signal (z-score) [23]: -0.069 | glycan array binding signal (z-score) [24]: -0.131 | glycan array binding signal (z-score) [25]: -0.192 | glycan array binding signal (z-score) [26]: -0.151 | glycan array binding signal (z-score) [27]: -0.183 | glycan array binding signal (z-score) [28]: -0.113 | glycan array binding signal (z-score) [29]: 0.001 | glycan array binding signal (z-score) [30]: -0.224 | glycan array binding signal (z-score) [31]: -0.184 | glycan array binding signal (z-score) (Neu5Ac(a2-3)Gal(b1-4)Glc): -0.197
